Results reported in patent publication US20190381086A1 (Scripps Research, published 2019).

Key:
Experiment in all cases: His-tag pull-down
[1] = biological target: T1, His-tagged full-length human GlyRS (glycyl-tRNA synthetase) (human, UniProt P41250 55-739)
T1 construct: also called His-tagged GlyRS; purified human GlyRS protein; not shown: His tag
T1 sequence: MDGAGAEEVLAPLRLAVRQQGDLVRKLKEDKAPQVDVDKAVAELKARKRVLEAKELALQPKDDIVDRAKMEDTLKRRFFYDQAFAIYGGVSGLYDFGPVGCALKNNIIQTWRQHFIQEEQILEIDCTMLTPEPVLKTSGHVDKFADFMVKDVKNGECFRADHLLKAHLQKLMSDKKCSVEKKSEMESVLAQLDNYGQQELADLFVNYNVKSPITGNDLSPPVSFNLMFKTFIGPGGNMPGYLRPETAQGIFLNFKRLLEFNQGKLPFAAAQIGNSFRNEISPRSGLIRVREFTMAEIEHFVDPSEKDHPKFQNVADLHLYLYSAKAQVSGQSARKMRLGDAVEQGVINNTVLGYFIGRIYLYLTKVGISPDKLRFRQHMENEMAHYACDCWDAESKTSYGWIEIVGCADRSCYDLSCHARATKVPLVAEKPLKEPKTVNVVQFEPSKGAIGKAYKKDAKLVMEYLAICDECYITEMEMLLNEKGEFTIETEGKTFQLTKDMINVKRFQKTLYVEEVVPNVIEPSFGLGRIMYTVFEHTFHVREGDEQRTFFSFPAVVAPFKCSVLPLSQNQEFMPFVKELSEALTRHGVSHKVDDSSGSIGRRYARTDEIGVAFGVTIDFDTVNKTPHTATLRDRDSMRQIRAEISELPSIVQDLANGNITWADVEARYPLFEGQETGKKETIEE

[2] = biological target: T2, His-tagged human SerRS (seryl-tRNA synthetase) (human, UniProt P49591)
T2 construct: not shown: His tag

[3] = biological target: T3, His-tagged human TrpRS (tryptophanyl-tRNA synthetase) (human, UniProt P23381 1-471, limits assumed)
T3 construct: not shown: His tag
T3 sequence (looked up): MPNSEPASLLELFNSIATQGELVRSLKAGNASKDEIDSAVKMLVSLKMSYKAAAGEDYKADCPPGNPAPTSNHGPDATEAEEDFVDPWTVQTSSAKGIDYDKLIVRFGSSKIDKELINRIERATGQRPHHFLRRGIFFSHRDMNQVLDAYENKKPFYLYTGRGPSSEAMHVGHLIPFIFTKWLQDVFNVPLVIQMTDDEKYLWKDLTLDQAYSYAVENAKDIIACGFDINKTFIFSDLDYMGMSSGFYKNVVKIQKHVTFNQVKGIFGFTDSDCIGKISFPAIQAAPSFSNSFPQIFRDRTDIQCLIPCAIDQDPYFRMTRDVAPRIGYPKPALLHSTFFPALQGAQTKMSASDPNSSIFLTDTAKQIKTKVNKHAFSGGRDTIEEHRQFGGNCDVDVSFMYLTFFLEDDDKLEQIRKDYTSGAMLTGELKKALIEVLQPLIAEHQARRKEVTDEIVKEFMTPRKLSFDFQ

Measured: binding result

B1: SUMO1 (other)
chain: not shown
notes: Bought protein
no binding: all assays above
